The text below walks through data of paper PMC4336329 (PLoS ONE, 2015).

The campaign covered roughly 310,000 compounds. About 14,000 (4.5%) showed an effect of 50% or more. The effect is printed as a negative number. The list shows a part of the results.
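Note: peak tail current of the secondary pulse compared with the same well before compound.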

In this assay the target is human ether-à-go-go-related gene (hERG) potassium channel (human, UniProt Q12809). In words: primary screen, population patch clamp on CHO cells stably expressing hERG.
Sequence of human ether-à-go-go-related gene (hERG) potassium channel (Q12809 whole entry, looked up): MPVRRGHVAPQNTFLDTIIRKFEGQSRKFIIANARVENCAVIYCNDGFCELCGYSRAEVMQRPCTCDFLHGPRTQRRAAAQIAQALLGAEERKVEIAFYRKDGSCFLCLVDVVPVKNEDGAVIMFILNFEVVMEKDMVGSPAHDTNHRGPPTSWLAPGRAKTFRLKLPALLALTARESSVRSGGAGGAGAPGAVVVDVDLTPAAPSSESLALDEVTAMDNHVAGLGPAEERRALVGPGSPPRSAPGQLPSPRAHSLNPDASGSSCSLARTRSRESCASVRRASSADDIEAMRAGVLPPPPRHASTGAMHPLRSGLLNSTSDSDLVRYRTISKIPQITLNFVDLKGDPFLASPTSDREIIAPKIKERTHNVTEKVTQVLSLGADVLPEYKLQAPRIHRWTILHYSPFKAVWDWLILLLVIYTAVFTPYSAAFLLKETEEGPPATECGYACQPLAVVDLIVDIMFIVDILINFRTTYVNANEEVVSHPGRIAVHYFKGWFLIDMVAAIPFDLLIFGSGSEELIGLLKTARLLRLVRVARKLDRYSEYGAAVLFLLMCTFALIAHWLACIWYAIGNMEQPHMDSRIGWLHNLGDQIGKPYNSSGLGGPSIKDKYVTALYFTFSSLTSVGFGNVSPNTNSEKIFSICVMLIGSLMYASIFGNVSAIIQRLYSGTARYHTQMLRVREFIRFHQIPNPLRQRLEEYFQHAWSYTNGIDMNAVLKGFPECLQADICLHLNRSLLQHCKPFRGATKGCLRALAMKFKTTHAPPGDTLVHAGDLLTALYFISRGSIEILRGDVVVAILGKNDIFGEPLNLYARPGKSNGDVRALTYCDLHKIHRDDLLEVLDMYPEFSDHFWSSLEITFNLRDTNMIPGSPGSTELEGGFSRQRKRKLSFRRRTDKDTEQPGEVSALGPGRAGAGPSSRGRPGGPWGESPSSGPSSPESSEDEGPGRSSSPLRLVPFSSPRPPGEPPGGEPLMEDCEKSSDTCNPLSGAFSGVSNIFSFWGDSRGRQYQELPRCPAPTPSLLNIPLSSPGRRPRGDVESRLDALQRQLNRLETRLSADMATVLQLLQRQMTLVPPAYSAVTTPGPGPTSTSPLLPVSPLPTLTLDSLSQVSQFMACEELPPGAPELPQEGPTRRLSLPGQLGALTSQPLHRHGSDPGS
For the compound `CCOC(=O)CN1CC23C=CC(O2)C(C(=O)Nc2ccc(F)cc2)C3C1=O` (stereo not drawn), the “hERG current change (%, negative = inhibition) at 10uM” value is -0.929%. Consider `O=C(Nc1nc(-c2ccc(Cl)cc2Cl)cs1)C1CCCO1` (stereo not drawn), for which the “hERG current change (%, negative = inhibition) at 10uM” value is 2.44%. Consider `O=C(NCCSc1c[nH]c2ccccc12)C1CC1`, for which the “hERG current change (%, negative = inhibition) at 10uM” value is -4.85%. As to `COc1ccc(CN(C)CC(=O)NC2CCCc3ccccc32)cc1OC` (stereo not drawn), the “hERG current change (%, negative = inhibition) at 10uM” value was -36%. For the compound `O=C(Nc1ccc(Cl)cn1)c1ccc(Br)c(S(=O)(=O)N2CCCCC2)c1`, the “hERG current change (%, negative = inhibition) at 10uM” value was found to be 18.7%. `Cc1cc(C)nc(SCc2nnc(SCC(=O)N3CCOCC3)o2)n1`: the “hERG current change (%, negative = inhibition) at 10uM” value turned out to be 7.85%. `CN(CCOC(=O)/C=C/c1ccco1)Cc1ccccc1`: the “hERG current change (%, negative = inhibition) at 10uM” value was -4.75%.

For `CCOC(=O)CN1CC23C=CC(O2)C(C(=O)NCCc2ccccc2)C3C1=O` (stereo not drawn), the “hERG current change (%, negative = inhibition) at 10uM” value came to 6.73%. As to `CC1CCCCN1Cc1ccc(-c2nn[nH]n2)cc1` (stereo not drawn), the “hERG current change (%, negative = inhibition) at 10uM” value amounted to 22.2%.

For the compound `O=C(CSc1nc2scc(-c3ccccc3)c2c(=O)[nH]1)N1CCCCC1`, the “hERG current change (%, negative = inhibition) at 10uM” value amounted to 14.4%.

`CCN(C(=O)CSc1nnnn1-c1ccccc1)c1c(N)n(Cc2ccccc2)c(=O)[nH]c1=O`: the “hERG current change (%, negative = inhibition) at 10uM” value is reported as -6.24%.

Consider `C=CCOC(=O)C1=C[C@H](c2cn(C(C)=O)c3ccccc23)C[C@H](OCc2ccc(CO)cc2)O1`, for which the “hERG current change (%, negative = inhibition) at 10uM” value is recorded as -9.82%. With `O=C1CC(c2ccc(O)cc2)Oc2ccccc21` (stereo not drawn) the figure was -2.97%; with `COc1ccc(-c2oc3ccc(-c4cc(OC)c(OC)c(OC)c4)cc3c2-c2ccc(OC)cc2)cc1`, 13.6%. As to `CC(=O)N1c2ccc(S(=O)(=O)N3CCCC(C(=O)N4CCC(C)CC4)C3)cc2CC1C` (stereo not drawn), the “hERG current change (%, negative = inhibition) at 10uM” value is -12%. On to `O=C(CCN1CCOCC1)N1CCCC(Nc2ccc(F)cc2)C1` (stereo not drawn), for which the “hERG current change (%, negative = inhibition) at 10uM” value came out at 13.7%.

Consider `CCC(=O)N(CCc1ccc(S(N)(=O)=O)cc1)C1CC(=O)N(c2ccc(OC)cc2)C1=O` (stereo not drawn), for which the “hERG current change (%, negative = inhibition) at 10uM” value is given as 1.99%. With `C=CCC1(C#N)C(=S)NC2=C(C(=O)CC(C)(C)C2)C1c1ccc(Br)cc1` (stereo not drawn), the “hERG current change (%, negative = inhibition) at 10uM” value came out at 1.43%. As to `CC(C)N1CC(C(=O)Nc2nc3ccccc3s2)CC1=O` (stereo not drawn), the “hERG current change (%, negative = inhibition) at 10uM” value was -3.99%. Turning to `CNc1nnc(-c2ccco2)s1`, the “hERG current change (%, negative = inhibition) at 10uM” value was found to be 6.04%.

Take `CCc1ccc(OCC(=O)Nc2ccc(S(=O)(=O)Nc3cc(C)on3)cc2)c(Br)c1`: the “hERG current change (%, negative = inhibition) at 10uM” value is reported as -19.7%. Regarding `CCCSc1nc(N)nc(-c2cccs2)c1C#N`, the “hERG current change (%, negative = inhibition) at 10uM” value is on record as -11.6%. For `Clc1ccc(-n2c(SC/C=C/c3ccccc3)nnc2-c2cccnc2)cc1`, the “hERG current change (%, negative = inhibition) at 10uM” value is listed as -50.3%.

As for `CCCCCc1ccc(-c2cn(Cc3ccc(C(=O)c4ccccc4)cc3)nn2)cc1`, the “hERG current change (%, negative = inhibition) at 10uM” value came out at 16.2%. Take `O=C(NC1CCCCC1)NC1(C(=O)NCCCN2CCOCC2)CCCCC1`: the “hERG current change (%, negative = inhibition) at 10uM” value worked out at 14%. As for `CN(C)/C=N/c1nc(-c2ccc3ccccc3c2)cs1`, the “hERG current change (%, negative = inhibition) at 10uM” value is on record as -17.6%. Consider `CN(CC(=O)Nc1cccc(S(=O)(=O)N(C)C)c1)Cc1ccccc1`, for which the “hERG current change (%, negative = inhibition) at 10uM” value is on record as 1.62%. Turning to `CCCN(CCC)C(=O)C1CCC(CNS(=O)(=O)c2cccc3nsnc23)CC1` (stereo not drawn), the “hERG current change (%, negative = inhibition) at 10uM” value is given as -69.5%. With `COc1ccc(OC[C@@H](O)CNC(=O)c2cccc3c2C(=O)c2ccc(Cl)cc2S3(=O)=O)cc1` the figure was -6.85%.

On to `COc1ccccc1-c1cc(C(=O)N/N=C/c2cccs2)c2ccccc2n1`, for which the “hERG current change (%, negative = inhibition) at 10uM” value worked out at 11.5%. Take `O=C(CN1CCN(Cc2ccccc2)CC1)Nc1cccc(Cl)c1`: the “hERG current change (%, negative = inhibition) at 10uM” value is -60.7%. On to `Cc1ccc(S(=O)(=O)N2[C@@H](c3ccc(F)cc3)C(C(=O)O)=CC[C@H]2c2ccc(Cl)cc2)cc1`, for which the “hERG current change (%, negative = inhibition) at 10uM” value was 11.4%. On to `O=C(CN1C2CCCC1CC(NC(=O)C1CCCCC1)C2)Nc1ccccc1C(F)(F)F` (stereo not drawn), for which the “hERG current change (%, negative = inhibition) at 10uM” value is -1.78%. With `Cc1ccc(NC(=O)CSCCc2ccccn2)nc1` the figure was 2.78%; with `Cc1nn(C)c(C)c1NC(=O)c1ccnn1C`, -7.7%. With `O=C1NC(=O)N(c2ccccc2)C(=O)/C1=C\C=C\c1ccccc1`, the “hERG current change (%, negative = inhibition) at 10uM” value was found to be 0.219%. With `CCOC(=O)c1nnc2ccnn2c1N` the figure was 23.7%. With `Cc1ccc(COc2ccc(-c3nnco3)cc2)cc1` the figure was 16%.

As to `O=C(c1ccc2snnc2c1)N1CCN(c2ccccc2)CC1`, the “hERG current change (%, negative = inhibition) at 10uM” value was -40.7%. For the compound `CC(C)CCN1CCC(n2nccc2NC(=O)C2CCOC2)CC1` (stereo not drawn), the “hERG current change (%, negative = inhibition) at 10uM” value is 15.3%. As to `Cc1ccc(C2C(S(C)(=O)=O)=C(O)C(=O)N2c2ccccc2)cc1.Nc1ccccc1` (stereo not drawn), the “hERG current change (%, negative = inhibition) at 10uM” value was 6.31%. As to `COc1ccc(CCN2CCCn3c2nc2c3c(=O)n(Cc3ccccc3F)c(=O)n2C)cc1OC`, the “hERG current change (%, negative = inhibition) at 10uM” value is recorded as -42.4%. In the case of `Cc1cc(NC(=O)CCC(=O)N(CC(=O)NCC2CCCO2)c2ccccc2C)no1` (stereo not drawn), the “hERG current change (%, negative = inhibition) at 10uM” value is recorded as 2.97%. Under `COc1ccc(CN2CCC(C(=O)NCCc3ccc(OC)c(OC)c3)CC2)c(OC)c1` stands -29.9%; under `COc1ccccc1NC(=O)c1sc2nc3n(c(=O)c2c1C)CCC3`, 14%.
